Laboratory results from paper PMC4336329 (PLoS ONE, 2015).
Among all 310,000 compounds or so, about 14,000 (4.5%) showed an effect of 50% or more. The effect is printed as a negative number. Some of the results follow.

molecular target: human ether-à-go-go-related gene (hERG) potassium channel (human, UniProt Q12809); test: primary screen, population patch clamp on CHO cells stably expressing hERG
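Note: peak tail current of the secondary pulse compared with the same well before compound.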

Chain of human ether-à-go-go-related gene (hERG) potassium channel (Q12809 whole entry, looked up): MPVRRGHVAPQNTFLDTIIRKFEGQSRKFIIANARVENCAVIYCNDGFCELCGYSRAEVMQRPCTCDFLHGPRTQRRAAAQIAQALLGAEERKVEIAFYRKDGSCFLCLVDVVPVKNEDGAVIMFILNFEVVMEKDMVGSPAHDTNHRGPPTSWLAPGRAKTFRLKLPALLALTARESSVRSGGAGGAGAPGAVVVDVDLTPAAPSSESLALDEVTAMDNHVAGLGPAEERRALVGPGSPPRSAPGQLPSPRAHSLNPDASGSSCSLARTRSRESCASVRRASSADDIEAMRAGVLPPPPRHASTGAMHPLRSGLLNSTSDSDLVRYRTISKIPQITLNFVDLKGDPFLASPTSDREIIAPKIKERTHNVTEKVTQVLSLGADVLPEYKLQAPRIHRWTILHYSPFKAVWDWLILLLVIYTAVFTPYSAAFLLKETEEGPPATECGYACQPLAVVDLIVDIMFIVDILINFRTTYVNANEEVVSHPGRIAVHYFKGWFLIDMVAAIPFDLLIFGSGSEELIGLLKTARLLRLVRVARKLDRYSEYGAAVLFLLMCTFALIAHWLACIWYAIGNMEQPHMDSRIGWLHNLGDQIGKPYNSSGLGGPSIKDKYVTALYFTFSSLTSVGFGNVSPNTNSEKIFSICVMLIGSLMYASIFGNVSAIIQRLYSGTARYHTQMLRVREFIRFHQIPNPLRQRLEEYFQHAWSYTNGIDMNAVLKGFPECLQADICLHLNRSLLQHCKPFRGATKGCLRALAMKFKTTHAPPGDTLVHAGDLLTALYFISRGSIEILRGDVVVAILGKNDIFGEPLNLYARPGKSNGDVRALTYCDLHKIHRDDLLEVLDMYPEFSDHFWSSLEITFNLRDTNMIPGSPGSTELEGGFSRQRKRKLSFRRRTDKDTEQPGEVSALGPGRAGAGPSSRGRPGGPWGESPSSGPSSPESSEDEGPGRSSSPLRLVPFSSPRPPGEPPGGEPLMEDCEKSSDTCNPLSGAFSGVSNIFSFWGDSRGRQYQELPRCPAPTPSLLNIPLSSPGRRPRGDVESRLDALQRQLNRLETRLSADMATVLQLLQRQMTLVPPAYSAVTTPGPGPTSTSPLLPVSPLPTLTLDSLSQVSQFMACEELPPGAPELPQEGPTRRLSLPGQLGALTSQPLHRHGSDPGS

| Compound | hERG current change (%, negative = inhibition) at 10uM [%] |
| --- | --- |
| CCOC(=O)Cn1c2[n+](c3ccccc31)CC(O)CS2.[I-] (centres unmarked) | 16.3 |
| O=C1CC(c2ccc(S(=O)(=O)N3CCN(c4ccccc4)CC3)cc2)CN1 (centres unmarked) | -10.8 |
| Cc1cc(C)n(C(=O)c2ccccc2[N+](=O)[O-])n1 | 22.7 |
| CCc1nc2c(cnn2-c2ccc(Cl)cc2)c(=O)n1-c1ccc2c(c1)OCCO2 | -17.9 |
| COC(=O)c1c(NC(=O)CN2CCC3(O)CCCCC3C2c2cc(OC)ccc2OC)sc(C)c1C (centres unmarked) | 21.9 |
| CC(C)c1ccc(/C=N/NC(=O)C2CCCC2)cc1 | -9.68 |
| COc1ccc(CNS(=O)(=O)c2ccc3c(c2)N(C(C)=O)CCO3)cc1 | 3.46 |
| CCc1sc(C(=O)NCCc2ccc(S(N)(=O)=O)cc2)cc1Br | -9.36 |
| C[N+](C)(C)CC(O)CC(=O)O.[Cl-] (centres unmarked) | -2.12 |
| COc1ccc(N(CC(=O)Nc2ccccc2SC)S(C)(=O)=O)cc1OC | 14.2 |
| COc1ccc(Nc2nccc(N(C)C)c2C#N)cc1 | 5.01 |
| CC1=C(CC[C@@H](C)CO)OC2CC3C4CCC5CC(O)CCC5(C)C4CC(=O)C3(C)C12 (some centres unmarked) | 4.38 |
| CC(C)C(=O)N1CCC(n2nccc2NC(=O)CCc2ccccc2)CC1 | 18.7 |
| CN(C)C=Nc1ncc2c3ccccc3n(CCN(C)C)c2c1C#N | -15.7 |
| N#Cc1ccccc1OCC(=O)OCC(=O)c1ccc[nH]1 | -12.2 |
| COc1ccc([C@H]2CC(=O)C=C(c3ccc4c(c3)OCO4)C2)cc1 | -22.9 |
| COc1ccc(Nc2oc(-c3cccs3)nc2C#N)cc1 | 15 |
| COc1ccc(-c2cc(C)no2)cc1S(=O)(=O)N1CCN(c2ccc([N+](=O)[O-])cc2)CC1 | -76.2 |
| Cc1c(Br)c(C(N)=O)nn1C | 6.27 |
| CCOc1ccc(CN2C(=O)CCC2(C)C(=O)NCc2cccnc2)cc1 (centres unmarked) | -27.1 |
| COC(=O)c1c(CSc2ccc(Cl)cc2)noc1C(=O)NCc1ccco1 | -3.11 |
| COc1ccccc1OCCCCOc1ccccc1F | 4.65 |
| COc1ccc(OC)c(C(=O)NC2CCSc3ccccc32)c1 (centres unmarked) | -0.0849 |

| Compound | hERG current change (%, negative = inhibition) at 10uM [%] |
| --- | --- |
| CCOc1cccc(/C=N/N2C(=O)CSC2=S)c1O | 24.2 |
| Cc1ccc(C)c(N(C)C(=O)c2cc3c(=O)[nH]c4ccc(C)cc4c3s2)c1 | -2.75 |
| Cc1csc(NC(=O)c2oc3ccccc3c2C)n1 | -9.95 |
| O=C(CSc1n[nH]c(-c2ccccc2)n1)N1CCOCC1 | 13.3 |
| CCc1nc2ccccc2c(=O)n1-c1ccc2ccccc2c1 | -16 |
| Cn1c(C(=O)NCc2ccccc2)cc2oc3ccccc3c21 | 8.77 |
| COc1ccc(N2CCN(C(=O)CCCN3C(=O)c4cccc5cccc(c45)C3=O)CC2)cc1 | 8.04 |
| COc1ccc(NC(=O)CSc2nc(NS(=O)(=O)c3ccc(C)cc3)cc(=O)[nH]2)cc1 | 1.41 |
| CC(C)N1CCC(N2CCN(Cc3ccc(-c4ccccc4Cl)o3)CC2CCO)CC1 (centres unmarked) | -66.6 |
| Cc1cc(C)n(C(=O)Cn2nc([N+](=O)[O-])c(Br)c2C)n1 | 2.9 |
| COc1ccc(NC(=O)CSc2nnc(-c3ccccc3F)n2C2CC2)cc1S(N)(=O)=O | 19.7 |
| O=C(NCC1CCCO1)c1cccc(S(=O)(=O)NCc2ccccc2)c1 (centres unmarked) | 6.02 |
| Cc1cc(C)cc(NC(=O)Nc2ccc3c(c2)CCC3)c1 | 19.7 |
| CC(=O)Nc1ccc(C(=O)OCC(=O)NC2CCCCCCC2)cc1 | 15.2 |
| Cc1cccn2c(=O)c(C(=O)NC3CCCCC3)c(O)nc12 | 31.3 |
| OCCC1CN(Cc2ccc(Oc3ncccn3)cc2)CCN1C1CCCCC1 (centres unmarked) | -7.34 |
| Cc1ccccc1OCC1Cn2c(nc3c2c(=O)[nH]c(=O)n3C)O1 (centres unmarked) | -8.46 |
| NC(=O)CC1Nc2cccc3cccc(c23)NC1=O (centres unmarked) | 8.93 |
| Cc1nn(C)c(C(=O)Nc2ccn(C34CC5CC(CC(C5)C3)C4)n2)c1[N+](=O)[O-] | -10.7 |
| CC(C(=O)OCC(=O)c1ccccc1)N1C(=O)c2ccccc2C1=O (centres unmarked) | -2.02 |
| O=C(CN1CCN(C(=O)COc2cccc(F)c2)CC1)Nc1ccc(Cl)c(C(F)(F)F)c1 | -60.6 |
| COc1ccc(NC(=O)c2nc[nH]c2C(=O)NCC(=O)OC(C)(C)C)cc1 | -18.6 |
| O=C1C=CC(=O)N1c1ccc(OC(F)F)cc1 | -2.06 |

| Compound | hERG current change (%, negative = inhibition) at 10uM [%] |
| --- | --- |
| O=C(CN1CCN(c2ccc(O)cc2)CC1)Nc1cc([N+](=O)[O-])ccc1Cl | -3.23 |
| Cc1ccc(S(=O)(=O)NCC(=O)OCc2cc(=O)oc3c(C)c(C)ccc23)cc1C | -16.7 |
| CCN(CC)C(=O)Oc1ccc(Cl)c2cccnc12 | -5.04 |
| Cc1ccc(C(=O)CNc2ccc(Br)cc2)cc1 | 2.81 |
| COc1cccc(-n2cc(CNCc3c(C(=O)N(C)C)nc4ccc(Cl)cn34)cn2)c1 | -55.9 |
| O=C1c2ccc(-c3ccc(F)cc3OCc3ccccc3)cc2S(=O)(=O)c2cccc(C(=O)N3CCCC3)c21 | 13.1 |
| COC(=O)Cn1ncn2c(cc3oc(C)cc32)c1=O | 13.1 |
| CCn1c(SCc2nc3ccccc3c(=O)[nH]2)nc2ccccc21 | -12.4 |
| COc1ccc(C(=O)Nc2ccccc2Cc2ccccc2)c(OC)c1 | -16.1 |
| Cc1ccccc1OCCn1cc(C(=O)O)c2ccccc21 | 15.3 |
| Cc1cc(C#N)c(C)n1-c1cc(S(=O)(=O)N2CCOCC2)ccc1N1CCCC1 | -14.3 |
| CC(=O)Nc1ccc(/C=N/NC(=O)CNS(=O)(=O)c2ccccc2)cc1 | 5.91 |
| COc1ccc(Nc2oc(-c3ccc(F)cc3)nc2C#N)cc1 | 1.73 |
| O=C(/C=C/NNC(=O)c1ccccc1O)c1ccccc1 | -23.5 |
| COCCSc1ccccc1C(=O)NCc1ccc(S(N)(=O)=O)cc1 | -40.9 |
| CCc1cc(=O)oc2cc(C)cc(OCc3nn[nH]n3)c12 | -5.99 |
| C=Cc1ccc(C(=O)NC2CCCN(Cc3ccccc3F)C2)cc1 (centres unmarked) | -28.8 |
| CCc1cc2c(=O)n(Cc3ccco3)c(SCc3c(C)noc3C)nc2s1 | -5.47 |
| O=C(N/C(=C\c1ccc(Cl)cc1)C(=O)N1CCOCC1)c1ccco1 | -31.4 |
| O=C(CCN1C(=O)COc2ccccc21)NCCCN1CCN(c2ccccc2F)CC1 | -42.7 |
| CC(=O)Nc1ccc2ccc3cccc4ccc1c2c34 | -2.51 |
| Cc1ccccc1Cn1ccc(NC(=O)c2cc3nc(-c4ccco4)cc(C(F)(F)F)n3n2)n1 | 14.7 |
| CCOC(=O)C1(CCOc2ccccc2)CCN(Cc2cccc(OCCO)c2)CC1 | -83.4 |

| Compound | hERG current change (%, negative = inhibition) at 10uM [%] |
| --- | --- |
| CCn1cc([N+](=O)[O-])c(C(=O)N2N=C(c3ccccc3)CC2c2ccc([N+](=O)[O-])cc2)n1 (centres unmarked) | -37.2 |
| Cc1cccc(-n2nnc(C(=O)NCc3ccco3)c2N)c1 | -10.2 |
| CCOc1ccc(Cl)cc1CNCCCSc1nc(C)cc(C)n1.Cl | -59.6 |
| O=C(Nc1ccc2c(c1)OCO2)c1cnn2cccnc12 | 8.03 |
| O=[N+]([O-])c1ccc(N2CCCC2)nc1 | -0.605 |
| COc1cc(Cl)c(C)cc1NC(=O)CN1CCN(C(=O)C2CC2)CC1 | -59.6 |
| COc1ccc(CN2CSC(=S)N(Cc3ccccc3)C2)cc1 | -8.05 |
| C/C(=C\C(=O)c1ccc(Br)cc1)NCc1ccccc1 | -3.83 |
| COCc1cccc(C2=CC(=O)C[C@H](c3ccc(OC)cc3)C2)c1 | -20.7 |
| COc1ccc(NC(C)=O)cc1S(=O)(=O)Nc1ccccc1C(=O)NCCc1ccccc1 | 8.95 |
| C=CCN(c1ccccc1Cl)S(=O)(=O)c1cc(C(=O)N2CCCC2)ccc1Cl | -46.4 |
| O=C(O)c1ccc(NC(=O)c2ccccc2NC(=O)c2cccc(F)c2)cc1 | 20.2 |
| CCc1ccc(C2C(=O)c3ccccc3C2=O)cc1 | -3.18 |
| CCOC(=O)CSCC(NC(=O)OC(C)(C)C)C(=O)OCC (centres unmarked) | 4.53 |
| O=C(CCc1nc(-c2ccccc2)no1)NC1CCCCC1 | -2.68 |
| COc1ccc(CN2CCCC(C(=O)c3ccc(Cl)cc3)C2)cc1Cn1cncn1 (centres unmarked) | -78 |
| Cc1ccc(S(=O)(=O)NCCCC(=O)C=[N+]=[N-])cc1 | 3.51 |
| CC1CCc2sc(NC(=S)NC(=O)c3ccccc3)c(C#N)c2C1 (centres unmarked) | 6.48 |
| Cn1c(=O)n(C)c2cc(NS(=O)(=O)c3ccc(C(C)(C)C)cc3)ccc21 | -6.6 |
| CCOC(=O)c1ccn(CSc2c(F)c(F)cc(F)c2F)n1 | -3.79 |
